Drawing on publication PMC5892938, this text covers binding signal (log2 fold change) for 47 sequences.

The list shows a part of the results. At the low end of the ranking, values are background and their order means little.

The experiment deals with GST-SBP-SLBP (stem-loop binding protein) (UniProt Q14493). The experiment is described as follows: targeted RNA Bind-n-Seq.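 Further: DESeq read counts versus GST-SBP nonspecific binding control pulldown.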 To be noted: RBNS binding buffer: 25 mM Tris pH 7.5, 150 mM KCl, 3 mM MgCl2, 0.1% Tween, 0.5 mg/mL BSA, 1 mM DTT; 27 nM protein, 750 pM RNA pool; temperature not stated; high values mean tight binding.
With “GGUCACGUCUCAAUCAACUCAAUCCCAGGAGUUUCCUCCUGCUAUCUCAACAGCUCGCAGUCAAG”, the binding signal (log2 fold change) was 0.0751.

With “GGUCACGUCUCAAUCAACUCAAUUUCAGGAGUUUGCUCCUGCUUAUUCAACAGCUCGCAGUCAAG”, the binding signal (log2 fold change) is -0.066. As for “GGUCACGUCUCAAUCAACUCUUUUUCCAGGGAAAGCCCUGGUUUUUUCAACAGCUCGCAGUCAAG”, the binding signal (log2 fold change) is -0.0886. For “GGUCACGUCUCAAUCAACUCAUCUUCAGGAGUUUACUCCUGCUUAGUCAACAGCUCGCAGUCAAG” the value was 0.342; for “GGUCACGUCUCAAUCAACUCCCCAGAGGGGGGGAAAACCCCUUUGCCCUCACAAUCAACAGCUCGCAGUCAAG”, 0.0366; for “GGUCACGUCUCAAUCAACUCAACUCCCAGGGAAAUCCCUGGCAAUUUCAACAGCUCGCAGUCAAG”, 0.115.

As to “GGUCACGUCUCAAUCAACUCAUCUCCCAGGGAAAACCCUGGUUUUCUCAACAGCUCGCAGUCAAG”, the binding signal (log2 fold change) was -0.0692. For “GGUCACGUCUCAAUCAACUCCUUAGAGGGGGGGAAAACCCCUUUACCCUCAACUUCAACAGCUCGCAGUCAAG” the value was 0.489.

For “GGUCACGUCUCAAUCAACUCUUCUUCCAGGGAAACCCCUGGUUAUUUCAACAGCUCGCAGUCAAG”, the binding signal (log2 fold change) was -0.0217.

Turning to “GGUCACGUCUCAAUCAACUCUCUCGAGGGGGGGAAAACCCCUUUACCCUCUCAUUCAACAGCUCGCAGUCAAG”, the binding signal (log2 fold change) is -0.417.

In the case of “GGUCACGUCUCAAUCAACUCUCCCGAGGGGGGGAAAACCCCUUUGCCCUCAUCAUCAACAGCUCGCAGUCAAG”, the binding signal (log2 fold change) was -0.0262. For “GGUCACGUCUCAAUCAACUCAACUCCCAGGGAAACCCCUGGCAUUUUCAACAGCUCGCAGUCAAG” the value was 0.00921; for “GGUCACGUCUCAAUCAACUCUCAAGAGGGGGGGAAAACCCCUUUGCCCUCACAAUCAACAGCUCGCAGUCAAG”, -0.0652. Take “GGUCACGUCUCAAUCAACUCAUUCCCCAGGGAAAUCCCUGGUAAUUUCAACAGCUCGCAGUCAAG”: the binding signal (log2 fold change) was 0.228.

“GGUCACGUCUCAAUCAACUCAUUUUCAGGAGUUUCCUCCUGCUAAUUCAACAGCUCGCAGUCAAG”: the binding signal (log2 fold change) was -0.00105. Regarding “GGUCACGUCUCAAUCAACUCCUCGGAGGGGGGGAAAACCCCUUUACCCUCAUAUUCAACAGCUCGCAGUCAAG”, the binding signal (log2 fold change) was 0.374. Take “GGUCACGUCUCAAUCAACUCUAUUCCCAGGGAAAGCCCUGGUAUAUUCAACAGCUCGCAGUCAAG”: the binding signal (log2 fold change) is -0.0186.

For the sequence “GGUCACGUCUCAAUCAACUCUUUAGAGGGGGGGAAAACCCCUUUGCCCUCCAAUUCAACAGCUCGCAGUCAAG”, the binding signal (log2 fold change) is -0.457. For “GGUCACGUCUCAAUCAACUCAGUUCCAGGAGUUUACUCCUGUUUUUUCAACAGCUCGCAGUCAAG” the value was -0.322. Then “GGUCACGUCUCAAUCAACUCUAUCCCCAGGGAAACCCCUGGUAAUUUCAACAGCUCGCAGUCAAG”, with -0.223. Turning to “GGUCACGUCUCAAUCAACUCUACUUCAGGAGUUUCCUCCUGUUAAUUCAACAGCUCGCAGUCAAG”, the binding signal (log2 fold change) came out at 0.0516.

For the sequence “GGUCACGUCUCAAUCAACUCUACUUCCAGGGAAACCCCUGGUAUACUCAACAGCUCGCAGUCAAG”, the binding signal (log2 fold change) was found to be 0.362. For the sequence “GGUCACGUCUCAAUCAACUCUUCCCCCAGGGAAAUCCCUGGUUAAUUCAACAGCUCGCAGUCAAG”, the binding signal (log2 fold change) is 0.0614. For “GGUCACGUCUCAAUCAACUCAUCUCCCAGGGAAAUCCCUGGUUUUCUCAACAGCUCGCAGUCAAG” the value was 0.27; for “GGUCACGUCUCAAUCAACUCUAAAGAGGGGGGGAAAACCCCUUUGCCCUCCGUAUCAACAGCUCGCAGUCAAG”, 0.296; for “GGUCACGUCUCAAUCAACUCCAAAGAGGGGGGGAAAACCCCUUUGCCCUCGUCAUCAACAGCUCGCAGUCAAG”, -0.0842. “GGUCACGUCUCAAUCAACUCAUUCUCCAGGGAAAGCCCUGGUAUUCUCAACAGCUCGCAGUCAAG”: the binding signal (log2 fold change) is 0.053. With “GGUCACGUCUCAAUCAACUCAAGGUCAGGAGUUUCCUCCUGUAUAUUCAACAGCUCGCAGUCAAG”, the binding signal (log2 fold change) was 0.0679. For “GGUCACGUCUCAAUCAACUCUCAAGAGGGGGGGAAAACCCCUUUACCCUCACACUCAACAGCUCGCAGUCAAG” the value was 0.134. For the sequence “GGUCACGUCUCAAUCAACUCAAUUUCAGGAGUUUACUCCUGCUUUCUCAACAGCUCGCAGUCAAG”, the binding signal (log2 fold change) came out at 0.0184. For “GGUCACGUCUCAAUCAACUCUAUCUCCAGGGAAACCCCUGGUAUAUUCAACAGCUCGCAGUCAAG” the value was 0.148; for “GGUCACGUCUCAAUCAACUCAUCUUCAGGAGUUUUCUCCUGCUUUCUCAACAGCUCGCAGUCAAG”, 0.188; for “GGUCACGUCUCAAUCAACUCAUCGUCCAGGGAAAACCCUGGUUUAUUCAACAGCUCGCAGUCAAG”, -0.206. For “GGUCACGUCUCAAUCAACUCCCCAGAGGGGGGGAAAACCCCUUUACCCUCGAUAUCAACAGCUCGCAGUCAAG” the value was 0.0183; for “GGUCACGUCUCAAUCAACUCAACAGAGGGGGGGAAAACCCCUUUACCCUCACUUUCAACAGCUCGCAGUCAAG”, -0.312. As for “GGUCACGUCUCAAUCAACUCAUUUCCAGGAGUUUACUCCUGUAUUUUCAACAGCUCGCAGUCAAG”, the binding signal (log2 fold change) was -0.05.

Take “GGUCACGUCUCAAUCAACUCUUUAGAGGGGGGGAAAACCCCUUUGCCCUCCAUGUCAACAGCUCGCAGUCAAG”: the binding signal (log2 fold change) was -0.0101. For “GGUCACGUCUCAAUCAACUCUAUCUCCAGGGAAAUCCCUGGCAAACUCAACAGCUCGCAGUCAAG” the value was 0.0496. With “GGUCACGUCUCAAUCAACUCGUUUUCAGGAGUUUUCUCCUGCAAUUUCAACAGCUCGCAGUCAAG”, the binding signal (log2 fold change) is -0.0626. For “GGUCACGUCUCAAUCAACUCAACUCCAGGAGUUUGCUCCUGCUUUCUCAACAGCUCGCAGUCAAG” the value was 0.0357; for “GGUCACGUCUCAAUCAACUCUAUCUCCAGGGAAAGCCCUGGUUUACUCAACAGCUCGCAGUCAAG”, -0.0967; for “GGUCACGUCUCAAUCAACUCUUCCUCCAGGGAAAUCCCUGGUUAAUUCAACAGCUCGCAGUCAAG”, 0.00749. For “GGUCACGUCUCAAUCAACUCAAUCUCCAGGGAAAUCCCUGGUUUUUUCAACAGCUCGCAGUCAAG” the value was -0.0897; for “GGUCACGUCUCAAUCAACUCCUACGAGGGGGGGAAAACCCCUUUACCCUCAACAUCAACAGCUCGCAGUCAAG”, 0.0891; for “GGUCACGUCUCAAUCAACUCAUCUCCCAGGGAAAUCCCUGGCAUACUCAACAGCUCGCAGUCAAG”, -0.123. Then “GGUCACGUCUCAAUCAACUCUUUUUCCAGGGAAAACCCUGGUAUACUCAACAGCUCGCAGUCAAG”, with -0.194.

Regarding “GGUCACGUCUCAAUCAACUCUAUGUCAGGAGUUUUCUCCUGCUUAUUCAACAGCUCGCAGUCAAG”, the binding signal (log2 fold change) is -0.0612.
